{
  "source": "patent US20260159607A1",
  "binders": {"B1": {"name": "Chimeric parental (H6166 + L6165) (antibody, V domains shown)", "VH": "DVKLVESGGGLVKLGGSLKLSCAASGFTFSSYYMSWVRQTPEKRLELVAAINSNGGSTYYPDTVKGRFTISRDNAKNTLYLQMSSLKSEDTALYYCARHGGNYWYFDVWGAGTTVTVSS", "VL": "DIVMSQSPSSLAVSVGEKVTMS[sequence of about 80 residues omitted]FGGGTKLEIK"}},
  "key": {"purified DCLK1 [1]": {"target": "purified DCLK1 (UniProt O15075)", "test": "Octet (BLI), antibody loaded on anti-human Fc (AHC) sensors, DCLK1 in solution at 100, 33.3, 11.1 and 3.7 nM, 1:1 fit"}, "purified DCLK1 [2]": {"target": "purified DCLK1 (UniProt O15075)", "test": "Octet BLI; antibody on anti-human IgG Fc biosensor, purified DCLK1 in solution, 1:1 fit"}},
  "data": [
    {"binder": "B1", "values": [
      {"measurement": "Kd", "setting": "purified DCLK1 [1]", "value": 6.02, "unit": "nM"},
      {"measurement": "Kd", "setting": "purified DCLK1 [2]", "value": 6, "unit": "nM"},
      {"measurement": "koff", "setting": "purified DCLK1 [2]", "value": 0.00053, "unit": "s⁻¹"},
      {"measurement": "kon", "setting": "purified DCLK1 [2]", "value": 87000, "unit": "M⁻¹ s⁻¹"}
    ]}
  ]
}
